Assay results: patent publication US8980952B2, “Methods for treating brain swelling with a compound that blocks a non-selective cation channel” (University of Maryland, Baltimore, priority 2002, dated 2015)
“And” between values parts separate entries of the source, which are not always exact repeats. Identical values can stand only once. Like-named read-outs stand apart in the source and are kept apart here.

Columns and labels:
NCCa-ATP channel [1] = molecular target: T1, NCCa-ATP channel (Rattus norvegicus, UniProt Q09429); type: cell-based; set-up: freshly isolated reactive astrocytes are studied in a native state immediately after their isolation from the brain; endogenous in cells; host or cells: freshly isolated native reactive astrocytes (NRAs, type R1) from injured adult rat brain (gelatin sponge implant); cell-attached, inside-out and outside-out patches
T1 sequence (Q09429 whole entry): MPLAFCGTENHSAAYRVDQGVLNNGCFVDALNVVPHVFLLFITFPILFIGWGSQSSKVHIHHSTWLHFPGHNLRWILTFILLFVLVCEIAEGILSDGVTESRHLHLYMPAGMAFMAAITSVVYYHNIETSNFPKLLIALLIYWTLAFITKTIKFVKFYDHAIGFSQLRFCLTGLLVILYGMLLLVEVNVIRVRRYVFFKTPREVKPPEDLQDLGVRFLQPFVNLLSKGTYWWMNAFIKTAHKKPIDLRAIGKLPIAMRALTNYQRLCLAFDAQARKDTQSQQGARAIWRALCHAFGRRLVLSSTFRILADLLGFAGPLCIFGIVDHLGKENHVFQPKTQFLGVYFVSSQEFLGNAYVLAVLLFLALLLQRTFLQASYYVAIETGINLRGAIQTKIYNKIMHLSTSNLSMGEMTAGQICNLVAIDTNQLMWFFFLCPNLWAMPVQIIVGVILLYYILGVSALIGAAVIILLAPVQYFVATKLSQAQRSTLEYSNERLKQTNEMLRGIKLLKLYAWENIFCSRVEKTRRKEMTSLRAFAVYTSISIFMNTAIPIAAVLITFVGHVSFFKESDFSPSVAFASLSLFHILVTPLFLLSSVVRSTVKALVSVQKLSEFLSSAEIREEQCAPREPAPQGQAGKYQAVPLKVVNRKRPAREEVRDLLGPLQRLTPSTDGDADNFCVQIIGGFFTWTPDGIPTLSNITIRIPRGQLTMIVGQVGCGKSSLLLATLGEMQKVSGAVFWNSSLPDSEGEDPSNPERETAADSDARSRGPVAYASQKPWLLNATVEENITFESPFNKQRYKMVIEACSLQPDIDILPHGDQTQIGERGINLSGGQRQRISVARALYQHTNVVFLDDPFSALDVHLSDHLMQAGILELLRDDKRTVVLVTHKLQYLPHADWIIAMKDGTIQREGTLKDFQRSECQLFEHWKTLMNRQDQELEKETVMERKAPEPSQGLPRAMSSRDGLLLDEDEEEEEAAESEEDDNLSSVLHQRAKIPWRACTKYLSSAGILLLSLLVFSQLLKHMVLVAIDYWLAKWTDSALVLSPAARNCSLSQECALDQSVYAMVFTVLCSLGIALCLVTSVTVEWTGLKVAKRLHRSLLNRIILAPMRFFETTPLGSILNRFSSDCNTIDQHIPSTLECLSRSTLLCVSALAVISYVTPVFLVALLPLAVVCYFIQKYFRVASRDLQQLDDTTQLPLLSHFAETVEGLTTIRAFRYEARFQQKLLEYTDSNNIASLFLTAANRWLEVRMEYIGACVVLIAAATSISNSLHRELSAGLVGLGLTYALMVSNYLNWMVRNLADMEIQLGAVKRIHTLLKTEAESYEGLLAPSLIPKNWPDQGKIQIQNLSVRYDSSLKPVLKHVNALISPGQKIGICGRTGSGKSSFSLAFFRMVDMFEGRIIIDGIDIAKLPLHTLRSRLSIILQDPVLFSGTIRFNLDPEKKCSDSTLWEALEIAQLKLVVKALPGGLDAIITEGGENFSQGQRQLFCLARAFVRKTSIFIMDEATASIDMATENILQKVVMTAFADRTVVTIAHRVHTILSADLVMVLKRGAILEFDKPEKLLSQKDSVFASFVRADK

NCCa-ATP channel [2] = molecular target: T1, NCCa-ATP channel
NCCa-ATP channel [3] = molecular target: T1, NCCa-ATP channel; assay: biochemical
NCCa-ATP channel [4] = molecular target: T1, NCCa-ATP channel; assay: Excised patch recording of NCCa-ATP channel with SUR ligands (glibenclamide, tolbutamide, diazoxide); type: biochemical; set-up: freshly isolated reactive astrocytes are studied in a native state immediately after their isolation from the brain; endogenous in cells; host or cells: freshly isolated native reactive astrocytes (NRAs, type R1) from injured adult rat brain (gelatin sponge implant); cell-attached, inside-out and outside-out patches; conditions: for open channel probability (n•Po): 0.63 before drug
[5] = diazoxide 100 μM, cell-attached patches

CC[N+](CC)(CC)CC.[Cl-] [TEA, tetraethylammonium chloride]
Block of NaN3-induced single channel currents (NCCa-ATP channel [1]): not blocked

Nc1ncnc2c1ncn2[C@@H]1O[C@H](COP(=O)(O)OP(=O)(O)OP(=O)(O)O)[C@@H](O)[C@H]1O [ATP, adenosine triphosphate]
Effect on channel activity / availability (NCCa-ATP channel [2]; 1 mM on cytoplasmic side, inside-out patch): profound diminution in channel activity
Hill coefficient (NCCa-ATP channel [2]; block by [ATP]i): 1
EC50 (NCCa-ATP channel [3]): 0.79 µM
IC50 (NCCa-ATP channel [3]): 0.79 µM

CCCCNC(=O)NS(=O)(=O)c1ccc(C)cc1 [tolbutamide]
concentration at which channel activity is completely lost (NCCa-ATP channel [4]): > 300 µM
open channel probability (n•Po) (NCCa-ATP channel [4]; 3 μM tolbutamide): 0.44
open channel probability (n•Po) (NCCa-ATP channel [4]; 30 μM tolbutamide): 0.09
Closed channel dwell times (NCCa-ATP channel [4]; 3 and 30 μM tolbutamide): increased in duration and frequency
open dwell time values (NCCa-ATP channel [4]; 3 and 30 μM tolbutamide): not appreciably affected
EC50 (NCCa-ATP channel [4]; Cs+ charge carrier, dose-response of channel block, read-out: half maximum inhibition (EC50)): 16.1 µM
IC50 (NCCa-ATP channel [4]; FIG. 11B, means from 5 patches, read-out: half-maximum inhibition of open channel probability): 16.1 µM
Hill coefficient (NCCa-ATP channel [4]; inhibition by sulfonylureas): 1.3 and 1

CC1(C)Oc2ccc(C#N)cc2C(N2CCCC2=O)C1O (centres unmarked) [cromakalin]
Activation of the 35 pS channel by SUR activators (NCCa-ATP channel [1]): no effect

NC1=N[C@H](O)[C@H]2[C@H]3O[C@]4(O)O[C@@H]([C@@H](O)[C@@]2(N1)[C@@H]4O)[C@]3(O)CO [tetrodotoxin]
Block of NaN3-induced single channel currents (NCCa-ATP channel [1]): not blocked

Nc1ncnc2c1ncn2[C@@H]1O[C@H](COP(=O)(O)OP(=O)(O)O)[C@@H](O)[C@H]1O [ADP]
ADP AMP channel effect (NCCa-ATP channel [2]): No channel effect
Effect on channel activity / availability (NCCa-ATP channel [2]): unaffected

CC1=NS(=O)(=O)c2cc(Cl)ccc2N1 [diazoxide]
Activation of the 35 pS channel by SUR activators (NCCa-ATP channel [1]; [5]): activates the 35 pS channel

CC(N/C(=N\C#N)Nc1ccncc1)C(C)(C)C (centres unmarked) [pinacidil]
Activation of the 35 pS channel by SUR activators (NCCa-ATP channel [1]; [5]): no effect

iberiotoxin: toxin partially blocking large conductance Ca2+-activated K+ channel currents (QFTDVDCSVSKECWSVCKDLFGVDRGKCMGKKCRCYQ)
Block of NaN3-induced single channel currents (NCCa-ATP channel [1]): not blocked

[Ca+2] [Ca^2+]
Activation [Ca^2+] (NCCa-ATP channel [2]): <1.0 µM
Hill coefficient (NCCa-ATP channel [2]): 1.5

charybdotoxin: toxin partially blocking large conductance Ca2+-activated K+ channel currents
Block of NaN3-induced single channel currents (NCCa-ATP channel [1]): not blocked

Nc1ncnc2c1ncn2[C@@H]1O[C@H](COP(=O)(O)O)[C@@H](O)[C@H]1O [AMP]
ADP AMP channel effect (NCCa-ATP channel [2]): No channel effect
Effect on channel activity / availability (NCCa-ATP channel [2]): unaffected

Nc1ccncc1 [4-AP, 4-aminopyridine]
Block of NaN3-induced single channel currents (NCCa-ATP channel [1]): not blocked
